# Publication PMC4336329 (PLoS ONE, 2015)
# Out of some 310,000 compounds screened, about 14,000 (4.5%) showed an effect of 50% or more. The effect is printed as a negative number. The list shows a part of the results. Where a SMILES comes first, the peptide text is derived from it. [ ]: non-standard residue; d: D form. pGlu = O=C1CC[CH](C(=O)O)N1
# Biological target: human ether-à-go-go-related gene (hERG) potassium channel (human, UniProt Q12809)
# Experiment: primary screen, population patch clamp on CHO cells stably expressing hERG
# 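Note: peak tail current of the secondary pulse compared with the same well before compound.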
# human ether-à-go-go-related gene (hERG) potassium channel, sequence (Q12809 whole entry, looked up): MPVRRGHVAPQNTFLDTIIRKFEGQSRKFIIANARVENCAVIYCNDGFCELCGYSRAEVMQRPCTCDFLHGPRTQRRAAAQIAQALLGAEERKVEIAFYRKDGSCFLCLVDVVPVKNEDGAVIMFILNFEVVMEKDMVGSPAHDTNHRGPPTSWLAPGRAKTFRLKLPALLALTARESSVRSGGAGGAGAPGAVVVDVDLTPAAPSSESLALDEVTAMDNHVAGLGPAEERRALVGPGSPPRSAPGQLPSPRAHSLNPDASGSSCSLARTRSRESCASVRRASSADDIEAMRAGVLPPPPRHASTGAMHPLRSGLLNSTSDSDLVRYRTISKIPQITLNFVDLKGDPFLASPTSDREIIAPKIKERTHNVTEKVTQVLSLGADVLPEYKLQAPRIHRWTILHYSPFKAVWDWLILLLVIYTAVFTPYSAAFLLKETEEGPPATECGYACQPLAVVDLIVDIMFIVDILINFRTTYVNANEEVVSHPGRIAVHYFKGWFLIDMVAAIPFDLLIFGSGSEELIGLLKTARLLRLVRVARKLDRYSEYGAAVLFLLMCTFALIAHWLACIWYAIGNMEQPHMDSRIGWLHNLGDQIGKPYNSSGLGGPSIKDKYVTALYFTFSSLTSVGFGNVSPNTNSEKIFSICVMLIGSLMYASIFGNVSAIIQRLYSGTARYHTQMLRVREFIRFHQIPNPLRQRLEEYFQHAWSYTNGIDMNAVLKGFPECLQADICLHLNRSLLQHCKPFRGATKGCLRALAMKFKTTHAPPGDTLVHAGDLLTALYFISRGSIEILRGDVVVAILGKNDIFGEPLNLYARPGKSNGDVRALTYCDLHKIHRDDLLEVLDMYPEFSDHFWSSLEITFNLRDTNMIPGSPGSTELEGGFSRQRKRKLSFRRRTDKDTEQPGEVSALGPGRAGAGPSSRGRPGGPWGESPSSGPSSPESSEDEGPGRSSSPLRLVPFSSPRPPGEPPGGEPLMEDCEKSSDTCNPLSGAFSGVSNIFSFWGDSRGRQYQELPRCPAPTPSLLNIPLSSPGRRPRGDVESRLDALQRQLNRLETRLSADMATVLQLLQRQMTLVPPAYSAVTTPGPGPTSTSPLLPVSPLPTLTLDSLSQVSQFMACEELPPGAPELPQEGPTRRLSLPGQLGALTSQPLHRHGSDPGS
row,SMILES,"hERG current change (%, negative = inhibition) at 10uM [%]"
1,Cc1ccc(S(=O)(=O)N2CCCN(C(=O)c3ccc(-n4cccn4)cc3)CC2)cc1,-74.2
2,COc1ccc(C(=O)NCC(=O)OCC(=O)N2CCC(C)CC2)cc1OC,-1.82
3,COc1cccc(C2C(C(C)=O)=C(O)C(=O)N2CCc2c[nH]c3ccccc23)c1 (stereo not shown),-2.44
4,Cc1cc(Cl)ccc1OCCCC(=O)NCCN1C(=O)S/C(=C\c2cccnc2)C1=O,-49.9
5,Cc1ccc(NC(=S)C2=C(O)c3sccc3N(C)S2(=O)=O)cc1,10.4
6,CCOC(=O)C1CCN(C(=O)COc2ccc(Br)cc2)CC1,-32.1
7,C=CCOC(=O)C(C#N)c1nc2ccccc2nc1N1CCC(C(=O)OCC)CC1 (stereo not shown),1.86
8,CN1CCC(=O)N([C@H](CN=[N+]=[N-])c2ccccc2)CC1,6.65
9,Cn1ncc(Br)c1C(=O)N1CCCC1,19
10,CSCCCNC(=O)c1ccc(OC2CCN(C(=O)c3cccnc3)CC2)cc1,-11.4
11,Cc1cccc(OCCC(=O)NCC(c2ccco2)N2CCCCC2)c1 (stereo not shown),-17.4
12,Cc1ccc(NC(=O)CN2C(=O)C3C4C=CC(C4)C3C2=O)cc1S(=O)(=O)N(C)C (stereo not shown),-9.66
13,COc1ccccc1C(=O)N(C)CC(=O)Nc1ccc(N2CCOCC2)cc1,2.83
14,COc1ccccc1Nc1ccc(C(=O)NC2CCCCC2)cn1,-10.4
15,C=CCOc1ccc(CNc2ccc3[nH]c(=O)[nH]c3c2)cc1,1.57
16,CCN(CC)c1cc(CS(=O)c2ccccc2)nc(-c2ccccc2)n1 (stereo not shown),-44.9
17,CC(/C=C1\SC(=Nc2cccnc2)NC1=O)=C\c1ccccc1,8.95
18,CC(=C/c1ccc(C(C)C)cc1)/C=N/NC(=O)Cn1nnnc1N,17.3
19,O=C(Nc1nnc(S(=O)(=O)Nc2ccccc2)s1)c1ccccc1Cl,8.51
20,O=C(CN1CCN(C(=O)c2ccco2)CC1)Nc1ccccc1,-13.9

row,SMILES,"hERG current change (%, negative = inhibition) at 10uM [%]"
1,O=C(Cn1[nH]c(=O)c2ccccc2c1=O)OCC(=O)c1ccc(Br)cc1,11.9
2,CN1CCN(NC(=O)c2ccc(COc3ccccc3Br)o2)CC1,-18.3
3,CC1CCc2nc3sc4c(c3c(N)c2C1)CCCC4 (stereo not shown),-9.43
4,COc1ccc(N(C(=O)c2cccnc2)S(=O)(=O)c2ccc(F)cc2)cc1,-11.9
5,O=C(CN(Cc1ccco1)C(=O)CNS(=O)(=O)c1ccc(Cl)cc1)NCc1ccco1,-55.4
6,CC(=O)N1CCN(C(=S)NC(=O)c2ccc(S(=O)(=O)N3CCOCC3)cc2)CC1,9.7
7,Cc1ccc(Sc2ncccc2[N+](=O)[O-])cc1,0.884
8,Cc1cc(C(=O)N/N=C/c2ccc([N+](=O)[O-])o2)c(C)o1,-7.72
9,Cc1csc(-c2cccnc2)n1,6.37
10,Cc1cccc(C)c1NC(=O)c1sccc1SCC#N,-21.3
11,Cn1cnc2cc(NS(=O)(=O)c3ccc(Br)cc3)ccc21,10.1
12,Cc1ccc(N(C)S(=O)(=O)c2cc3c(cc2C)NC(=O)CO3)cc1,-1.65
13,COCCNC(=O)/C(C#N)=C/c1nc(N(C)C)n(-c2ccc(F)cc2)c1Cl,4.18
14,Cc1ccn2c(-c3n[nH]c(=S)n3C)c(C)nc2c1,19.6
15,Clc1ccccc1C1=NCc2nncn2-c2sc(Br)cc21,4.71
16,O=C(Nc1cccc(O)c1)C1CC(c2c(F)cccc2Cl)=NO1 (stereo not shown),-15.6
17,COc1ccc(C(C#N)N2CCOCC2)cc1 (stereo not shown),9.08
18,Cc1ccc(S(=O)(=O)NCc2ccccc2)cc1C(=O)NCC1CCCO1 (stereo not shown),7.03
19,CCCCCN(C(=O)CCC(=O)OCC(=O)NC1CCC(C)CC1)c1c(N)n(CCCC)c(=O)[nH]c1=O (stereo not shown),12.9
20,CNC(=O)C(C#N)(Cc1cc(C(C)=O)ccc1OC)Cc1cc(C(C)=O)ccc1OC,16.5

row,SMILES,"hERG current change (%, negative = inhibition) at 10uM [%]"
1,C(=N\Nc1ncnc2sc3c(c12)CCC3)/c1cccs1,7.32
2,Cc1cc(C(=O)N/N=C/c2ccc(-c3cccc(Br)c3)o2)n[nH]1,12.4
3,Cc1cc(Br)cc2c(C(=O)NCC3CCCO3)cc(-c3cccs3)nc12 (stereo not shown),4.81
4,CC(C)c1ccc2oc(=O)cc(CN3CCN(c4ccccc4)CC3)c2c1,-10.4
5,Cc1ccc(Cl)cc1NC(=O)CCC(=O)O,8.47
6,CNC(=O)c1[nH]nc2c1CCc1cc(OC)ccc1-2,12.8
7,S=c1[nH]nc(COc2ccccc2)n1/N=C/C=C/c1ccccc1,5.34
8,COCCn1nnnc1CN1CCC(C)CC1,-2.19
9,CCOc1cc(/C=N/NC(N)=O)cc(Br)c1OCC(=O)Nc1ccccc1C,-65.7
10,Cc1cnc([N+](=O)[O-])n1CCOC(=O)NC(=O)c1ccc(F)cc1,-9.2
11,CC1(C)CC2CC(C)(CN2c2ncnc3ccc(Br)cc23)C1 (stereo not shown),11
12,CCn1c(SCC(=O)c2ccc(Cl)s2)nnc1-c1cccs1,-35.5
13,CCCCOc1ccc(C(=O)NCC(=O)NCCOc2ccccc2)cc1,1.13
14,O=C(CC(=O)NC1CCCCC1)N/N=C/c1ccccc1Cl,11
15,Cc1cccc(Nc2nc(N)c(C#N)c(CC#N)c2C#N)c1,-17.3
16,CCNC(=O)C(CC(C)C)NC(=O)C(CO)NC(=O)C1CCC(=O)N1 (stereo not drawn) ([pGlu]-Ser-Leu-NHEt; configuration not given here),11.8
17,O=S(=O)(c1ccc(Cl)cc1)N1CCN(Cc2cccnc2)CC1,-27.2
18,CC(=O)n1cc(/C=N/NC(=O)c2ccccc2Cl)c2ccccc21,26.4
